# Experimental data reported in the supplement of paper PMC10126150.
# Values marked as one replicate rest on one cluster of the flow cell; about a third of the high ones do not repeat.
# Test system: ATP
# Test: switch fluorescence ratio, 500 uM ATP over buffer (Cy3 cluster intensity, sum of 5 cycles each) (fold (ratio)); higher = stronger signal-on switching upon ATP binding; sequences stand for … in TCGTCGGCAGCGTCAGATGTGTATAAGAGACAGTTTTTTTTTTTTTTTTTTTTTTTTT…TC
# Conditions: aptamer strand: ATP DNA aptamer (quencher-CACCTGGGGGAGTATTGCGGAGGAAGG + anchor), 100 nM annealed; ATP concentration: 500 uM; one replicate
# In short: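 The fluorescence ratio divides summed target-cycle Cy3 intensity by summed buffer-cycle Cy3 intensity for each cluster and is averaged per switch-domain sequence. Cy3-labelled switching-strand clusters on a modified Illumina MiSeq flow-cell were annealed to 100 nM quencher-labelled ATP aptamer, then imaged in selection buffer and again after 15 min with 500 uM ATP at 22 °C. Five such cycles were run, with NaOH stripping and re-annealing between them, and clusters outside 100-1000 RFU were excluded.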
# 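Note: ATP exposure 15 min at 22 °C before imaging.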
row,Sequence,switch fluorescence ratio
1,GAGAGGGCGG,0.946
2,CGCCCAAGCG,1.01
3,ACGGGTATC,0.988
4,AAGAAAAGTT,1.11
5,GATCGGAGAC,1.04
6,GAAGTTGTTA,1
7,ATTCAACTTT,1.02
8,TCCGGGGCAT,2.85
9,GGTCACTAGT,0.989
10,CATCTATAGG,1.03
11,CCGGTACTT,1.13
12,TTTTTTCG,0.955
13,TCCGTTGGCG,0.965
14,GGTGGCTTGA,0.966
15,ATGGTTGCGG,1.01
16,TAATCTCGGA,0.979
17,TAATGGCTTC,1.02
18,ACGAAGTCCT,0.968
19,AAATCGAAAG,1.04
20,ACAAGGGATC,1
21,GTAATTCCGT,1
22,GGAGGAGAGT,1.03
23,ACAACAACGG,1.14
24,TTAAGGAAAG,1.29
25,GGAGCTGCAT,1.03

row,Sequence,switch fluorescence ratio
1,GGAAGGAGGT,1.04
2,GGGCTGGCAG,0.938
3,ATAAGCCGAC,1.11
4,AGCGCTATAG,1.09
5,AGGCATCGTC,0.997
6,ACACAAAGTA,1.06
7,CATAGAATTC,1.02
8,GGCCGAGACG,0.953
9,TTGCCCTGGC,1.04
10,GGGTTGGGCG,0.972
11,TTTAGATGAA,0.97
12,TGATTATACT,1.05
13,CTGTCGGTGC,1.08
14,CATTACATTT,0.954
15,ACGGTCATGC,1.19
16,AAACTAAA,0.969
17,ACGTAGAGTA,1.12
18,CGCTGATATC,1.73
19,ATCTACAGCT,1.03
20,ATTGCTTTCC,1.28
21,GCTTATATTC,0.972
22,GGCCGATTCG,0.965
23,GGAGCGGTAT,1.32
24,GCGATATACG,1.05
25,CGACTCATTC,2.68

row,Sequence,switch fluorescence ratio
1,AGCACGATGT,1
2,CAGGACTGAG,1.02
3,CCCTCCTTCG,1.77
4,GTGGA,1.02
5,CTTCTCTCTC,1.07
6,AAGGTAGTAC,1.07
7,ATCGTTTACT,1.02
8,ATTCGCAATT,4.65
9,AGACGATTGC,1.01
10,AATACGGAGT,1.02
11,GGCAGAGTTG,0.969
12,GAATTGATTA,0.984
13,GGACTGGTTA,1.04
14,AGGGGTGGAC,1.06
15,GTTCATCCTT,1.04
16,CGTAACTTAA,0.988
17,TGCACACGTT,1.01
18,AGGGGATTCC,1.17
19,CGTATATCAC,1.06
20,GAGCGAACTC,1.18
21,ACTGGTGCGC,1.02
22,GTTCTAAAAC,1.01
23,TCCGCGCATT,1.18
24,GGAGGGACAA,1.01
25,CTTTGCAGAT,1.13

row,Sequence,switch fluorescence ratio
1,GTGACGGATT,1.02
2,GGTCAACCTG,0.977
3,CCGCTTTATC,2.47
4,TTGTCTTAAA,1.02
5,GTGTAGACAT,1
6,GATGAAGTTT,0.921
7,TCGTAGAATG,1.01
8,TACAAAGTGT,0.998
9,AATTTTTAG,1.06
10,AATTATCGCA,1.05
11,TGGGAGATA,0.996
12,GAGTATAAC,0.972
13,TGCTATAACC,1.02
14,TTGACGATTA,1.57
15,AATGGCTCA,1.01
16,GTTACCTCTG,1.03
17,TTGTCGAGGG,0.945
18,TAATAATTTC,0.969
19,GTTACAACTG,0.999
20,GACCAGTAAC,1.09
21,CCTAGCGAAT,1.7
22,TTGGAATCAG,1
23,TTAATGTCA,0.988
24,AAGTAATAG,1.23
25,TGTCCTAGGA,1.01
